Results taken from PMC5864733 (Nature Communications, 2018).

Molecular target: the molecule itself
Test: SEC

B1: CesT-Cdel (residues 1-145) (domain or fragment)
chain: MSSRSELLLDRFAEKIGVGSISFNENRLCSFAIDEIYYISLSDANDEYMMIYGVCGKFPTDNPNFALEILNANLWFAENGGPYLCYESGAQSLLLALRFPLDDATPEKLENEIEVVVKSMENLYLVLHNQGITLENEHMKIEEIS
notes: source: E. coli BL21(DE3), purified (Ni-NTA, gel filtration); not shown: His6, N-terminal, kept
stoichiometry N: 2
